The list shows a part of the results. The main result of the screen is listed elsewhere. These columns were measured beside it and carry no call. The list favours compounds with an active or inconclusive main result.
test: beta-lactam sensitization of Mtb H37Rv, H37Rv (AID 434955);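 note: growth measured after seven days incubation then overnight dye step; 0% = bacteria only wells and 100% = bacteria with antibiotic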; settings: M. tuberculosis H37Rv growth with meropenem, percent inhibition; measured here: primary screen without meropenem; at 25 µM

Row | SMILES | inhibition [%]
1 | CCOC(=O)C(=CNc1ccc(C(F)(F)F)cc1Cl)C(=O)OCC | 7.72
2 | O=C(c1nc2ccc(Cl)cn2c1CN1CCCC(CO)C1)N1CCc2ccccc2C1 (configuration not stated) | -1.48
3 | COc1ccccc1-c1nnc(SCC(=O)NC2CCCCC2)o1 | -0.53
4 | Cc1cccc2cc(C(c3nnnn3Cc3ccccc3)N3CCCc4ccccc43)c(=O)[nH]c12 (configuration not stated) | 1.04
5 | CCN1CCN(C(=O)C2CCN(Cc3nc(-c4cccc(Cl)c4)oc3C)CC2)CC1 | -0.4
6 | Nc1c(C(=O)c2cccs2)sc2nsc(SCCN3CCCCC3)c12 | 42.9
7 | O=C(Cn1cnc2sc3c(c2c1=O)CCCC3)NCC(=O)Nc1ccccc1F | 6.85
8 | CC1CN(C(=O)CCC(=O)NCc2ccc(Cl)cc2)c2ccccc2S1 (configuration not stated) | 0.85
9 | COc1ccc(-n2cnnc2SCC(=O)Nc2cccc(S(=O)(=O)N3CCCCC3)c2)cc1 | -6.25
10 | C=CCSc1nc2c(c(-c3ccsc3)c1C#N)CN(C)CC2 | 35.1
11 | COc1cccc(C(=O)N2C(C(=O)O)CSC2c2ccccc2Cl)c1 (configuration not stated) | 0.15
12 | O=NN1CCN(c2ccncc2S(=O)(=O)N2CCCCC2)CC1 | -4.27
13 | Cc1ccc2oc(C(=O)N(C)Cc3cnccn3)c(C)c2c1 | 1.98
14 | O=C(Nc1ccnn1C1CCN(Cc2cccc(OCCO)c2)CC1)c1cccc(F)c1 | 4.21
15 | CCCNC(=O)NCCc1ccncc1 | -3.88
16 | CCCCN(CC)S(=O)(=O)c1ccc(C(=O)Nc2nnc(CSC)o2)cc1 | 35.1
17 | COc1ccc(C2SCC(=O)Nc3c2c(=O)[nH]n3C2CCCCCC2)cc1OC (configuration not stated) | 1.23
18 | Cc1cc(C(=O)CSc2nnnn2-c2ccccc2)c(C)n1-c1ccc2c(c1)OCO2 | 25.5
19 | O=C(/C=C/c1ccco1)NC(=S)Nc1ccccn1 | 7.38
20 | O=c1oc2ccccc2cc1-c1csc(Cc2nc(-c3ccc(Br)cc3)cs2)n1 | 5.58
21 | CCn1cc(CN2CCC(C(=O)Nc3cccc(-c4cscn4)c3)CC2)cn1 | -6.37
22 | O=S(=O)(Cc1ccccc1)N1CCN(C/C=C/c2ccccc2)CC1 | -0.72
23 | O=C(c1nc2ccc(Cl)cn2c1CNCCc1cnccn1)N1CCCCCCC1 | -15.9
24 | COc1ccc(CN(C)S(=O)(=O)c2ccc3c(c2)OCCO3)cc1 | -3.04
25 | CC1(C(=O)O)CCC(C(=O)Nc2ccccc2O)C1(C)C (configuration not stated) | -2.85
26 | COc1cc(CNc2ccccc2SC)ccc1O | -8.95

Row | SMILES | inhibition [%]
27 | CCN1CCN(Cc2cc(OC)c(OC)cc2[N+](=O)[O-])CC1 | 3.3
28 | O=C(Nc1ccccc1F)c1oc2ccccc2c1NC(=O)C1CC1 | 5.06
29 | CCOC(=O)c1ccc(N2CCOCC2)c(NC(=O)c2ccc3c(c2)OCO3)c1 | 3.55
30 | CCOC(=O)c1nc(N2CCN(C(=O)OCC)CC2)c2c3c(sc2n1)CCCC3 | 3.3
31 | CCCCc1cc(=O)oc2c(CN(C)C)c(O)c(Cl)cc12 | 1.09
32 | N#Cc1cc2c(nc1SCC(=O)Nc1sc3c(c1C#N)CCC3)CCCC2 | 43.5
33 | COc1ccc(C)cc1NC(=O)CSc1nnc(-c2ccc(OC)c(OC)c2)n1N | -2.82
34 | O=S(=O)(Nc1cccc(-c2ccc(N3CCCCCC3)nn2)c1)c1ccccc1Cl | 30.8
35 | CC1(C)Cc2c(sc(NC(=O)c3ccc(S(=O)(=O)N4CCCCCC4)cc3)c2C#N)C(C)(C)N1 | 9.45
36 | CCn1cc(CN2CCC(C(=O)Nc3cccc(-c4cccc(Cl)c4)c3)CC2)cn1 | 13.6
37 | Cc1ccc(CNc2ncnc3c2cnn3-c2ccccc2)cc1 | -4.07
38 | O=C(NCc1cccs1)c1cc(-c2cccs2)on1 | -1.22
39 | CN(C)c1ccc(-c2nn3c(-c4cccnc4)nnc3s2)cc1 | -3.24
40 | CCc1ccc2nc(N(CCN(C)C)C(=O)/C=C/c3cccs3)sc2c1 | 54.8
41 | Cc1cnc(CN(C)Cc2c(C(=O)N3CCCCCCC3)nc3ccc(Cl)cn23)[nH]1 | 2.21
42 | Cc1cc2[nH]c(=O)c(=O)[nH]c2cc1S(=O)(=O)N(C)C1CCCCC1 | -9.31
43 | COc1ccccc1C(c1c(N)n(C)c(=O)n(C)c1=O)C(C)[N+](=O)[O-] (configuration not stated) | 43.9
44 | COCCN1C(=O)c2ccccc2C(C(=O)N2CCN(c3ccccc3)CC2)C1c1ccc(F)cc1 (configuration not stated) | -2.38
45 | COC(C(=O)Nc1ccnn1C1CCN(Cc2ccc(CO)o2)CC1)c1ccccc1 (configuration not stated) | -16.5
46 | CCn1c(O)c(/C(C)=N/N2CCCCC2c2cccnc2)c(=O)[nH]c1=S (configuration not stated) | 5.62
47 | O=C(CN1C(=O)c2cccnc2Oc2ccc(Cl)cc21)N1CCOCC1 | 9.43
48 | C/C(=N\O)c1noc(C)c1C(=O)Nc1nccs1 | -2.68
49 | COC(=O)N1CC(c2ccccc2)CC1=O (configuration not stated) | 2.76
50 | COc1ccc(CNC(=O)C2CCN(C(=O)c3cccc(Cl)c3)CC2)cc1 | -4.8
51 | COc1ccc(OC)c(NC(=O)c2ccccc2SC)c1 | 29.6
52 | CN(C(=O)c1sc2nc(N3CCCC3)c3c(c2c1N)CC(C)(C)OC3)c1ccccc1 | 4.75

— PubChem BioAssay AID434955 (Southern Research Specialized Biocontainment Screening …, 2010)
